From ChEMBL document CHEMBL1201862, “PubChem BioAssay data set” (2004)
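Values below derive from 48-hour exposures of cells grown in 96-well plates, with endpoints linearly interpolated between the two concentrations bracketing the appropriate inhibition level. The concentration for 50% growth inhibition is given as GI50.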 Activity calls are given as the source filed them. No stated cut-off is given here; in the data, active = GI50 up to about 1.1 µM and inactive = higher.

What follows are molecules tested on NCI-H322M (assay: inhibition of tumour cell growth, NCI panel, 48 h).

Row | SMILES | GI50
1 | CCC1c2[nH]c3ccccc3c2C[C@H]2C(=O)NC(COC(C)(C)C)C(=O)N12 (stereo partly drawn) | inactive: 77.6 µM
2 | Cc1ccc(SSc2ccc(C)cc2C(=O)O)c(C(=O)O)c1 | inactive: > 100 µM
3 | CC1=C(N2CC2)C(=O)C(CO)=C(N2CC2)C1=O | active: 0.13 µM
4 | Cc1cc(Cl)nc(NC(=O)CSc2ccc(Cl)cc2)n1 | inactive: > 100 µM
5 | CN(C)CCSc1cccc(-c2cc(-c3cccc(SCCN(C)C)c3)nc(SCCN(C)C)n2)c1 | inactive: 1.84 µM
6 | COC1CCC(CO)OO1 (stereo not drawn) | inactive: 42 µM
7 | O=C1C(c2ccccc2)=C(c2ccccc2)C(c2ccccc2)/C1=C1\C(=O)C(c2ccccc2)=C(c2ccccc2)C1c1ccccc1 (stereo not drawn) | inactive: > 100 µM
8 | O=C1CCCC[C@H]1C(O)CC1CC(=O)N(c2ccccc2)C(=O)C1 (stereo partly drawn) | inactive: > 100 µM
9 | COc1ccc(C(=O)/C=C/c2ccc(O)c(O)c2F)c(OC)c1 | inactive: 7.5 µM
10 | Cc1ccc(-c2cn3c(nc4ccccc43)c(/C=C/c3ccco3)n2)cc1 | inactive: > 100 µM
11 | C=C1C(=O)OC2(C)CCC1CC1OC1(C)CCC=C(C)CCC2O (stereo not drawn) | inactive: > 100 µM
12 | CCc1nnc(CC)n1-n1c(Cc2ccccc2)n[nH]c1=O | inactive: > 100 µM
13 | OC1(CCc2ccccc2)COC(C(F)(F)F)(C(F)(F)F)C1 (stereo not drawn) | inactive: > 100 µM
14 | Cc1ccccc1NC(=O)c1c(C)oc2c1C(=O)c1ccccc1C2=O | inactive: 70.5 µM
15 | Cc1cccc2c1Oc1cc(Cl)ccc1C2NC(=O)CN(C)C (stereo not drawn) | inactive: 91.6 µM
16 | NS(=O)(=O)c1nnc(NS(=O)(=O)c2ccccc2[N+](=O)[O-])s1 | inactive: > 100 µM
17 | COC(=O)c1cc2cc3c(c(O)c2c(=O)o1)O[C@@]1(Oc2c(O)c4c(c(O)c2[C@H]1OC1CC(OC)C(O)C(C)O1)C(=O)C=C(OC)C4=O)[C@H](O)C3 (stereo partly drawn) | inactive: 1.23 µM
18 | Cc1nc2sccn2c1C(=O)NNC(N)=S | inactive: > 100 µM
19 | CCC1=NC(N/N=C/c2ccco2)=N/C1=C\c1ccccc1O | inactive: 23.7 µM
20 | CCOC(=O)/C(O)=C/c1cc(OC)cc(=O)o1 | inactive: > 100 µM
21 | COC(=O)C1=NC(=S)NC(c2ccccc2)C1c1nc2ccccc2s1 (stereo not drawn) | inactive: > 100 µM
22 | c1ccc2c(c1)NC1(N3CCCCC3)CCCCC21 (stereo not drawn) | inactive: 86.9 µM

Row | SMILES | GI50
23 | COc1ccc(NC(=S)NNC(=O)c2cc(-c3ccccc3)nc3ccccc23)cc1 | inactive: 21.4 µM
24 | Cc1cc(Cl)nc(Nc2nc3ccccc3[nH]2)n1 | inactive: > 100 µM
25 | CC(=O)OCCn1c(Cc2ccc(Cl)cc2)nn(C(C)=O)c1=O | inactive: > 100 µM
26 | ClC1=C(Cc2ccccc2)Cc2ccc3c(c21)CCC3 | inactive: 78.5 µM
27 | CC(C)=CC(=O)Oc1ccc([N+](=O)[O-])cc1 | inactive: > 100 µM
28 | CC(C)CCCC(C)C1CCC2C3CC([N+](=O)[O-])=C4CC(O)CCC4(C)C3CCC12C (stereo not drawn) | inactive: 14.9 µM
29 | O=C(/C=C(O)/C(=C/C(=O)c1ccccc1)NN=C(c1ccccc1)c1ccccc1)c1ccccc1 | inactive: > 100 µM
30 | Clc1nss/c1=N/c1nonc1-c1ccccc1 | inactive: > 100 µM
31 | COC(=O)N/N=C(\C)C(CN1CCCCC1)C(C1=C(O)c2ccccc2OC1)c1ccccc1 (stereo not drawn) | inactive: > 100 µM
32 | C=C1CC(C)(COc2ccc3c(C)c(C)c(=O)oc3c2C)OC1=O (stereo not drawn) | inactive: 10.8 µM
33 | CCSc1cc(C(=O)OC)c2n(c1=O)CCCC2 | inactive: > 100 µM
34 | Cc1cc(NCCCCCCCNc2cc(C)nc3cc(N)ccc23)c2ccc(N)cc2n1 | inactive: 65.2 µM
35 | CC1=NN(c2ccccc2Cl)C2(C1)C(Cl)C(=O)N2c1nc2ccccc2s1 (stereo not drawn) | inactive: > 100 µM
36 | Cc1ccc(NC(=O)SCCC(=O)O)cc1 | inactive: > 100 µM
37 | C/C(=N\NC(N)=S)c1ccc(C2CCCCC2)cc1 | inactive: 25.6 µM
38 | C=C(CN(C)C)C1(c2ccccc2)CC2(CCCC2)C(=O)O1 (stereo not drawn) | inactive: > 100 µM
39 | CC[C@]1(Cc2ccc(OC)c(OC)c2)C=[N+]([O-])O[C@H](OC2CCCCC2c2ccccc2)[C@@H]1OC(C)=O (stereo partly drawn) | inactive: 63.1 µM
40 | CN1c2ccccc2N(C)C23N(C)c4ccccc4N(C)C12N(C)c1ccccc1N3C (stereo not drawn) | inactive: > 100 µM
41 | Nc1ccc2ncc(Nc3ccc(Cl)c(Cl)c3)nc2c1 | inactive: 27 µM
42 | CCCc1c(O)nc(Nc2nc3ccccc3[nH]2)[nH]c1=O | inactive: > 100 µM
43 | CCOC(=O)/C=C(/C(=O)OCC)n1ccc(=O)n(Cc2cnnn2CCCCOC(C)=O)c1=O | inactive: > 100 µM
